Several values for one entry are separate records, joined by “and”; a condition that tells them apart may be missing. Equal entries are not always repeated.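 Following 48 hours of exposure in 96-well plates, responses at five concentrations were used to interpolate endpoints linearly. GI50 is the concentration that inhibits growth by half. TGI marks complete inhibition of growth.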

The test concerns NCI-H322M lung. Briefly: NCI anticancer screen, dose series, 48 h.
Regarding `C/C(=N\N=C(N)N)C(CN1CCCCC1)C(c1ccccc1)c1c(O)c2ccccc2oc1=O` (centres undefined), the TGI is over 100 µM. On to `Cc1ccc([N+](=O)[O-])cc1S(=O)(=O)Nc1ccc(C2=NN(S(=O)(=O)c3cc([N+](=O)[O-])ccc3C)C(c3ccccc3)C2)cc1` (centres undefined), for which the TGI was over 100 µM. Still for that read-out and setting: to `O=C1/C(=C/c2cccc(Cl)c2)CCCc2ccccc21` belongs 35.4 µM; to `CC(=O)NC1C(OC(C)C(=O)NC(C)C(=O)NC(CCC(=O)NCCCCCNc2ccc([N+](=O)[O-])c3[nH]c4ccccc4c(=O)c23)C(N)=O)C(O)C(CO)OC1(C)OCc1ccccc1` (centres undefined), over 100 µM. In the case of `CN1C=c2c3c(ccc2=C2C=CC4C=C5OCOC5=CC4=C21)OCO3` (centres undefined), the GI50 was 1960 nM and 13600 nM; the TGI is 4.17 µM and 27 µM. In turn, `CC(=O)c1nc2ccccc2n1C(C)C(=O)c1ccccc1` (centres undefined) came in with a TGI of over 100 µM. Same read-out and setting: as for `O=C1NC2c3c(I)sc(I)c3C(=O)C2O1` (centres undefined), the figure is 31.6 µM; as for `COc1ccc(C(c2ccccc2)(c2ccc(OC)cc2)N2C(=O)NC3C(CCCCC(=O)NCCCCCCOP(OCCC#N)N(C(C)C)C(C)C)SCC32)cc1` (centres undefined), 30.1 µM. Turning to `Cc1cc(S(=O)(=O)NC2=NCc3nc4ccccc4n32)c(S)cc1Cl`, the TGI is 75.3 µM. Still for that read-out and setting: as for `CC(/C=C/C(=O)NO)=C\C(C)C(=O)c1ccc(N(C)C)cc1` (centres undefined), the figure is 13.2 µM. `O=c1oc2ccc3ccccc3c2cc1-c1nnc(Nc2ccccc2)s1` displayed a TGI of over 100 µM. Same read-out and setting: to `CSC1=N/C(=C\c2ccc(Cl)cc2)C(=O)N1CN1CCCCC1` belongs over 100 µM. In the case of `CC1=C(C(=O)OC2CC3CCC2(C)C3(C)C)C2Nc3ccccc3N(C)C2O1` (centres undefined), the TGI was 9.62 µM. For `O=C(CSc1nc2c(n1Nc1ccccc1)-c1ccccc1SC2)Nc1nc(-c2ccc(Cl)cc2)cs1`, the GI50 is 34400 nM and the TGI was over 100 µM. For `CC1Cc2c(Cl)ncnc2N(C)c2ccc(Cl)cc21` (centres undefined), the GI50 was 295 nM and the TGI is over 100 µM. Take `Cc1c2ccccc2c(C2C3C(=O)N(c4ccc(Br)cc4)C(=O)C3ON2C(C(N)=O)c2ccccc2)c2ccccc12` (centres undefined): the TGI was over 100 µM. Compound `Cc1nc2sccn2c1C(=O)NN` had a TGI of over 100 µM. Turning to `CCOC(OC(C)=O)[C@@H]1C=C[C@H](C)N(c2ccc([N+](=O)[O-])cc2)O1` (some centres undefined), the TGI stood at 31.4 µM. As for `COc1ccc(/C=C\c2cc(OC)c(OC)c(OC)c2)cc1OCC(=O)Nc1nc2ccc(F)cc2s1`, the GI50 is over 100000 nM and the TGI is over 100 µM. For the compound `O=C(Nc1ccccc1)c1cc(S(=O)(=O)Nc2n[nH]c(=O)n2-c2ccccc2)c(S)cc1Cl`, the TGI was over 100 µM.

`CC(C)[N+]([O-])(CCCNc1c2ccccc2nc2cccc([N+](=O)[O-])c12)C(C)C` had a TGI of 1.52 µM. On to `CC(C)C[C@H](NC(=O)CNC(=O)c1cc(Cl)ccc1Cl)B(O)O`, for which the GI50 was 511 nM and the TGI came out at 12.6 µM.

The compound `O=C(O)CCNCC(=O)O` came in with a TGI of over 100 µM. For `COc1ccc2c3c1OC1C(F)C=CC4(O)C(C2)NCCC314` (centres undefined), the TGI stood at 18.5 µM. For the compound `CSc1ccc2c(cc1=O)[C@@H](NC(=O)c1cccc([N+](=O)[O-])c1)CCc1cc(O)c(O)c(O)c1-2`, the TGI was found to be 92.2 µM. Consider `CC1OC(OC2C(OC(=O)[C@]34CCC(C)(C)C[C@H]3C3=CC[C@@H]5[C@@]6(C)CC[C@H](OC7OC(C(=O)O)C(O)C(O)C7O)C(C)(C)[C@@H]6CC[C@@]5(C)[C@]3(C)C[C@H]4O)OCC(O)C2O)C(O)C(O)C1OC1OCC(O)C(O)C1O` (some centres undefined), for which the GI50 was 10300 nM and 4190 nM; the TGI was 22.3 µM and 14.5 µM. For `CCN1CCC(O)(c2ccc(Oc3ccc(Cl)cc3)cc2)C(C(=O)c2ccc(Oc3ccc(Cl)cc3)cc2)C1` (centres undefined), the TGI was determined as 29.2 µM. As to `Cc1ccc(O)c(NC(=O)c2cccc(Nc3ccnc(C(F)(F)F)c3)c2)c1`, the GI50 is 13100 nM and the TGI turned out to be 74.9 µM.

Turning to `C#CC[C@@H]1C[C@]2(C)[C@H]3CC[C@@H]4[C@H]5C(C(=C)C)CC[C@]5(C(=O)NCCCN5CCN(CCCN)CC5)CC[C@@]4(C)[C@]3(C)CC[C@H]2C(C)(C)[C@H]1OC(C)=O` (some centres undefined), the GI50 is 1620 nM and the TGI was 2.99 µM. Take `O=c1c2ccccc2sc2c(NCCCNCCO)nc3ccccc3c12`: the GI50 was 1830 nM and the TGI came out at 3.8 µM. `CC(=O)O[C@@H]1C[C@]2(C(=O)c3ccccc3)C(=O)C(=O)S[C@]12c1ccccc1` showed a TGI of over 100 µM. Same read-out and setting: as for `Cc1cc(NC2=CC(=O)C(=O)c3ccccc32)no1`, the figure is 30.7 µM.

Take `C=C[C@@H](C)[C@]1(C(=O)OC)CCCC12OCCO2`: the TGI was over 100 µM. Same read-out and setting: to `c1ccc2c(CSCc3cccc4ccccc34)cccc2c1` belongs over 100 µM. As to `CN(CCS(=O)(=O)N1C(=O)C2CCCN2C(=O)[C@@H]1Cc1ccccc1)C(=O)OCc1ccccc1` (some centres undefined), the TGI is over 100 µM.

Consider `CC(C)(O)C(O)COc1c2c(cc3oc(=O)ccc13)OCO2` (centres undefined), for which the TGI was over 100 µM. In the case of `C=CN(C(=O)N1CCN(c2cc3c(cc2F)c(=O)c(C(=O)O)cn3C2CC2)CC1)c1nc(-c2ccc(OC)cc2)cs1`, the GI50 was 2520 nM and the TGI was over 100 µM. For `COc1ccc2ncn(-c3cc(O[C@H](C)c4ccccc4C(F)(F)F)c(C(N)=O)s3)c2c1`, in that order: 3870 nM and 15.4 µM. For `OC(CNc1ccnc2cc(Cl)ccc12)CNc1ccnc2cc(Cl)ccc12` the same measures were 1930 nM and 4.18 µM. For `Cc1ccc(O)c(Cc2nc3ccccc3nc2-c2cccc(Cl)c2)c1`, the TGI was over 100 µM. For `CC(=O)O[C@@H]1C2CCC3C(CC[C@@]4(C)C3CC[C@@H]4C(C)N(C)C)[C@@]2(C)CC[C@@H]1NC(=O)C=C(C)C` (some centres undefined), the GI50 is 2530 nM and the TGI is 6.93 µM. For `COc1ccc2c(c1)C(=O)c1c-2n(CCCN(C)C)c(=O)c2ccccc12`, in that order: 636 nM and 9.29 µM.

`Cc1ccc(C)c(N2C(=O)C(=O)C(c3nc4ccccc4s3)/C(=N/N)C2=O)c1` (centres undefined) yielded a TGI of over 100 µM.

As to `CC(C)(C)C(=O)OCOP(=O)(NCc1ccccc1)C1CCCN(O)C1=O` (centres undefined), the GI50 was 2550 nM and the TGI turned out to be 20 µM. As to `C=CCNC(=O)NCCCCC(NC(C)=O)C(=O)NCc1ccccc1` (centres undefined), the TGI was over 100 µM. On the same count and under the same terms, as for `CC(=O)Nc1ccc(/C=C/C(=O)c2sc(-c3cccnc3)nc2C)cc1`, the figure is over 100 µM; as for `CN(C)C(C1=C(O)C(c2ccccc2)N(c2ccccc2)C1=O)N1CCOCC1` (centres undefined), over 10 µM. Regarding `COc1cc(/C=C/c2cc(/C=C/c3ccc(O)c(OC)c3)n(C(=O)c3ccc(Cl)cc3)n2)ccc1O`, the GI50 is 3030 nM and the TGI was found to be 14.1 µM. Regarding `O=c1oc2ccc(I)cc2c(=O)n1-c1ccc(Br)cc1F`, the GI50 was 441 nM and the TGI came to 7.59 µM.

Compound `COc1cc2c(c(OC)c1OC)-c1ccc(OC)c(=O)cc1C(NC(=O)COc1ccccc1)CC2` (centres undefined) came in with a TGI of 1.93 µM. `O=C(CN(/C=C/C(=O)C(F)(F)F)c1ccc(Cl)cc1)c1ccc(Cl)cc1`: the GI50 is 12200 nM and the TGI was 25.4 µM. Compound `CC(C)N(C(=O)C12C3C4C5(C#N)C3C1(C#N)C5C42C#N)C(C)C` (centres undefined) had a TGI of over 100 µM.

For the compound `C=CCN(c1cc(OC)c(NC(C)=O)cc1[N+](=O)[O-])S(C)(=O)=O`, the TGI is over 100 µM. The same measure, in the same setting: as for `Cc1cnc2ccc(C)c([N+](=O)[O-])c2c1NCCCN(C)C`, the figure is over 100 µM. Consider `CCOC(=O)C1=CCCC[C@H]1S(=O)(=O)Nc1ccc(F)cc1Cl`, for which the GI50 was 25300 nM and the TGI was over 100 µM.

For the compound `CNC(=O)OCc1nc(SC)n(C)c1CO`, the TGI was over 100 µM. The same measure, in the same setting: to `Cc1ccc2c(c1)C(=C(C#N)C#N)CCCS2(=O)=O` belongs over 100 µM; to `C=C(CCCCC)CN1CCCC1C(C)=O` (centres undefined), over 100 µM; to `CSC12c3cc(C)n(-c4ccc([N+](=O)[O-])cc4)c3CC(C)(C)CN1C(=O)C2Oc1ccccc1` (centres undefined), over 100 µM. In turn, `CN1C(=O)C2(C)SC1(c1ccccc1)C1C(=O)N(c3ccccc3)C(=O)C12` (centres undefined) registered a TGI of over 100 µM.

Source of the values: PubChem BioAssay (NCI).
